Results: paper PMC4336329 (PLoS ONE, 2015)
The campaign covered roughly 310,000 compounds. About 2,200 (0.71%) showed an effect of 50% or more. The effect is printed as a negative number. Some of the results follow.

biological target: human ether-à-go-go-related gene (hERG) potassium channel (human, UniProt Q12809); assay: primary screen, population patch clamp on CHO cells stably expressing hERG
Sequence (Q12809 whole entry, looked up): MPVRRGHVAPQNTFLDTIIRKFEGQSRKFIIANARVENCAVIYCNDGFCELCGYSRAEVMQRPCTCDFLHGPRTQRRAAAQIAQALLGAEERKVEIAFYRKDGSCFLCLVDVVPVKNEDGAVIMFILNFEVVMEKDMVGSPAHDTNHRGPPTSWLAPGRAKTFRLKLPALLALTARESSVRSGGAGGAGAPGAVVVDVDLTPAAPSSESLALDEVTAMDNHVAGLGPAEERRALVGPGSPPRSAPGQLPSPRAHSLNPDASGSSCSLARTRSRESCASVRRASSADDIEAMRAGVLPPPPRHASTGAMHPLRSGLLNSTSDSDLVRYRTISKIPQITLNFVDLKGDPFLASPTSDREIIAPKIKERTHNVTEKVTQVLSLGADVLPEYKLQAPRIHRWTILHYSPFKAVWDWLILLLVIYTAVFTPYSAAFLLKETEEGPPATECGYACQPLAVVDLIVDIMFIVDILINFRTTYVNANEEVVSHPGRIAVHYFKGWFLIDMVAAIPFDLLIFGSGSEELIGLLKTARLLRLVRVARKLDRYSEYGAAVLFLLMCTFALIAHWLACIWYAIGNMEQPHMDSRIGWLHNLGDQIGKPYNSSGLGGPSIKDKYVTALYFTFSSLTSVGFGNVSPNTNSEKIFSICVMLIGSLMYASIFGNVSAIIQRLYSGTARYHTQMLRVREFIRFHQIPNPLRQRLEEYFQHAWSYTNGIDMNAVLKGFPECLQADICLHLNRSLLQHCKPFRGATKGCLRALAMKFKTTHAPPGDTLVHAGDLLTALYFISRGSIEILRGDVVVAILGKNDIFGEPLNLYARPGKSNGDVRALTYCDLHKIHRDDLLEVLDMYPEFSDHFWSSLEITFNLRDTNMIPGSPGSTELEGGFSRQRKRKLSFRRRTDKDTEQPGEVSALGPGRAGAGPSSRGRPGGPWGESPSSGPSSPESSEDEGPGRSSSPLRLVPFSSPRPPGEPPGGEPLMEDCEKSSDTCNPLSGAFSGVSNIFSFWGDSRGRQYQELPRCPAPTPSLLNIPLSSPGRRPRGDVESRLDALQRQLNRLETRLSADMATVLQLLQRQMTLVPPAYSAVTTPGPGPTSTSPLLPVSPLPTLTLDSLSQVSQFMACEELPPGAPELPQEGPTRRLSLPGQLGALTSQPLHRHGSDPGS

Compound | hERG current change (%, negative = inhibition) at 1uM
O=C(c1cccc(C(=O)N2CCN(c3ccccc3F)CC2)n1)N1CCN(c2ccccc2F)CC1 | -4.02%
C#CC(C)(C)NC(=S)NC1CC2C=CC1C2 (stereo not drawn) | 9.9%
O=C(CSc1nnc(NC(=O)c2ccco2)s1)Nc1ccccc1 | 7.17%
O=c1c(Cl)c(NCC2CCCO2)cnn1C12CC3CC(CC(C3)C1)C2 (stereo not drawn) | 12.3%
Cc1cccc(Nc2c([N+](=O)[O-])cc(C(=O)N3CC(=O)Nc4ccccc43)cc2[N+](=O)[O-])c1 | 11.8%
Cc1ccc(S(=O)(=O)c2c(C)cc(-c3ccccc3)[nH]c2=O)cc1 | 6.69%
COc1ccc(CC(=O)NCCS(=O)(=O)N2CCN(c3ccc(F)cc3)CC2)cc1OC | -6.87%
O=C1/C(=C/Nc2ccc3c(c2)OCO3)CCc2ccccc21 | 6.73%
COc1ccc(CN2CCN(CC3CC3)CC2CCO)cc1C (stereo not drawn) | 12.4%
CCC(c1nnnn1C(C)(C)C)N1CCN(c2cc(Cl)ccc2C)CC1 (stereo not drawn) | -3.8%
O=C(NNS(=O)(=O)c1ccccc1F)c1cc(-c2ccccc2)n[nH]1 | 4.3%
COc1ccc(Cn2c(=O)[nH]c3cc(C(=O)Nc4ccccc4C)ccc32)cc1 | 10.1%
N#CCCn1c(SCC(=O)NCc2ccco2)nc2ccccc21 | 1.13%
O=C(NC(=S)Nc1cccc(Cl)c1Cl)C1CC1 | 7.61%
O=C(O)c1c(NC(=O)c2cccc3ccccc23)sc2c1CCC2 | 8.88%
CCc1ccc(NC(=O)c2noc(C(C)C)c2[N+](=O)[O-])cc1 | 8.97%
COc1ccc(-n2nc(C(=O)NCC(=O)N3CCC4(CC3)OCCO4)c3ccccc3c2=O)cc1Cl | 7.93%
COc1ccc(NC(=O)C2C3CCC(O3)C2C(=O)O)c(C)c1 (stereo not drawn) | 12%
CC(C)CN1CCN(Cc2ccc(Oc3ncccn3)cc2)CC1CCO (stereo not drawn) | -3.25%
Cc1cc(C)cc(OCc2nnc(N)s2)c1 | 10.3%
COc1cc(OC)c(OC)cc1CN1CCN(Cc2ccc(SC)cc2)CC1.O=C(O)C(=O)O | -9.66%
COc1cccc(-c2ccc(C#N)c(SCC(=O)NCc3ccco3)n2)c1 | 2.49%
O=C(O)c1ccc(/C=N/NC(=S)NCc2ccccc2)cc1 | 15.5%
O=C(Cn1c2ccccc2c(=O)c2ccccc21)N/N=C/c1ccc(N2CCCC2)c([N+](=O)[O-])c1 | 13.2%
O=[N+]([O-])c1ccccc1/C=C/C=N/Nc1ccc(S(=O)(=O)Nc2ccc(Cl)cc2)cc1[N+](=O)[O-] | 12.9%
CCOC(=O)N1CCN(c2c(N3CCN(c4cccc(C(F)(F)F)c4)CC3)c(=O)c2=O)CC1 | -3.04%
COc1ccc(CNC(=O)c2oc3ccc(S(=O)(=O)N4CCOCC4)cc3c2C)cc1 | 16.8%

Compound | hERG current change (%, negative = inhibition) at 1uM
CC(=O)Nc1ccc(S(=O)(=O)N2CCN(C(=O)N3CCCCC3)CC2)cc1 | 15.8%
CCCCCCCc1c(C)nc(N2CCOCC2)[nH]c1=O | -6.06%
OC12Oc3ccccc3C=C1N1CCC2CC1 (stereo not drawn) | 3.5%
COCCN1C=C2C(=O)C(C)(OC(=O)CCC(=O)OC)C(=O)C(Br)=C2C=C1c1ccc(OC)cc1 (stereo not drawn) | 13.4%
COc1ccccc1CN(C)C(=O)c1cccc(S(=O)(=O)N2CCN(Cc3ccccc3)CC2)c1 | -1.77%
Cc1cccc(C)c1NC(=O)C1NC(=O)CC1c1ccccc1 (stereo not drawn) | 2.92%
O=c1c2ccccc2nnn1Cc1ccccc1 | 34.9%
CC(OC(=O)CNC(=O)c1ccc(Cl)c([N+](=O)[O-])c1)C(=O)NCc1ccco1 (stereo not drawn) | 0.467%
CCN(CC)C(=O)CSc1nc2c(c(-c3cccnc3)c1C#N)CCCC2 | 4.97%
CC1(C)CC(NC(=O)C2CCN(S(=O)(=O)c3ccccc3C(F)(F)F)CC2)CC(C)(C)N1 | 11.1%
O=C1NCCN/C1=C\C(=O)c1ccc(Br)cc1 | 10.7%
C/C=C\C=C\C(=O)Nc1cccc(C2=NOC3(C2)C[C@@H](C(N)=O)N(C(=O)C(c2ccccc2)c2ccccc2)C3)c1 (stereo partly drawn) | 11.2%
Cc1nc2nc3c(cn2n1)C(=O)CCC3 | -2.94%
O=C(NCc1ccccc1Cl)C(=O)NCC1OCCN1S(=O)(=O)c1ccc(F)cc1 (stereo not drawn) | 9.53%
C=CCn1c(SCn2nnc3ccccc3c2=O)nnc1-c1ccc(Br)cc1 | -11.2%
COc1cccc(/C=C2\SC(=S)N(CCC(=O)NNC(=O)c3ccccc3OC)C2=O)c1 | 14.8%
Cc1cc(NC(=O)C2CC(c3ccc(F)cc3)=NO2)no1 (stereo not drawn) | 5.41%
Cc1cccc(CN2C(=O)NC(c3ccccc3)(c3ccccc3)C2=O)c1 | 2.22%
Cc1[nH]c(C)c(S(=O)(=O)NCc2ccc(OC(C)C)cc2)c1C(=O)N1CCCC1 | 13%
CC(C)(C)c1csc(N/N=C/c2ccc(O)cc2)n1 | 14.6%
CCN(CC)C(=O)c1c([N+](=O)[O-])c(C(C)(C)C)nn1C | 11.9%
CCc1ccc(/C=N/NC(=O)c2ccccn2)cc1 | 4.99%
CC(=O)c1ccc(Oc2cc(C)nc(N3CCOCC3)n2)cc1 | 7.85%
O=C(N1CCN(CCO)CC1)N1c2ccccc2C=Cc2ccccc21 | 13%
O=C1CCCC(=O)N1c1ccc(N2CCN(c3ccccc3)CC2)c([N+](=O)[O-])c1 | 13.6%
Cc1cc(Nc2ccc(F)cc2)n2nc(C)nc2n1 | -6.92%
CC(C(=O)N1CC2(C)CC1CC(C)(C)C2)N1C(=O)c2ccccc2C1=O (stereo not drawn) | 12.8%
